Results on nine cell lines are retold here after the supplement of paper PMC4967469.

Assay in all cases: Viability of human cancer cell lines after 72 h of drug (GDSC screen)
Compound in test [1]: C=C(c1ccc(C(=O)O)cc1)c1cc2c(cc1C)C(C)(C)CCC2(C)C [Bexarotene]
The settings on record: top dose 8 µM. As for the experimental part:
(§1)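 Human cancer cell lines in 384-well plates, medium with 10% serum, drug for 72 h over a 256-fold dose range (nine 2-fold or five 4-fold steps up to the top dose). Adherent lines were fixed and stained with the nucleic acid dye Syto60, suspension lines read with resazurin; signal relative to control wells, capped at 0 and 100%. One two-parameter sigmoid per drug and line, fitted in a mixed model over all curves with the slope shared within a line.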

Compound in test [2]: COc1cc(C(=O)NC2CCN(C)CC2)ccc1Nc1ncc2c(n1)N(C1CCCC1)C(C)CC(=O)N2C [NPK76-II-72-1]
The settings on record: top dose 10.24 µM; top dose inferred. As for the experimental part:
as §1

Compound in test [3]: COc1ccc(C(=O)CC2(O)C(=O)Nc3c(Cl)ccc(Cl)c32)cc1 [YK 4-279]
The settings on record: top dose 10 µM. As for the experimental part: as §1

Compound in test [4]: Cc1ccc2nc(NCCN)c3ncc(C)n3c2c1 [BMS-345541]
The settings on record: top dose 16 µM. As for the experimental part: as §1

Compound in test [5]: NC(=O)Nc1cc(-c2cccc(F)c2)sc1C(=O)N[C@H]1CCCNC1 [AZD7762]
The note with it: top dose 2 µM. As for the experimental part: as §1

Compound in test [6]: O=C(O)c1ccc(-c2c[nH]c3ncc(-c4ccccc4)cc23)cc1C1CCCC1 [GSK-650394]
The note with it: top dose 16 µM; top dose inferred. As for the experimental part:
as §1

Compound in test [7]: Oc1nc(-c2ccc(C(F)(F)F)cc2)nc2c1CSCC2 [XAV 939]
The note with it: top dose 5 µM; top dose inferred. As for the experimental part: as §1

By IC50 is meant the dose at which the fit gives 50% viability; a fit beyond the top or the lowest dose is shown as a bound at that dose. AUC is the area under the same curve over the 256-fold range up to the top dose, as a fraction: 1 means no effect, lower means more sensitive. For part of these data: Where the top dose is marked as inferred, it comes from the curve model; the source does not state it. Where only a bound is given, the exact number is not on record here.

Take “NCI-H520 (lung squamous cell carcinoma, adherent)”: the AUC stood at 0.963 in test [1]; 0.643 in test [2]; 0.833 in test [3]; 0.858 in test [4]; 0.843 in test [5]; 0.848 in test [6]. Moreover, the AUC in test [7] is 0.972. The IC50 in test [1] was above 8 µM; in test [2], 1.61 µM; in test [3] it was 6.73 µM; in test [4], 13.9 µM; in test [5] it was 1.49 µM; in test [6], 12.5 µM. Besides, in test [7], the IC50 was above 5 µM.

“NCI-H661 (large cell lung carcinoma, adherent)”: the AUC stood at 0.949 in test [1]; 0.834 in test [2]; 0.721 in test [3]; 0.819 in test [4]; 0.578 in test [5]; 0.859 in test [6]. Further, the AUC in test [7] came out at 0.906. Moreover, the IC50 is above 8 µM in test [1]; 8.7 µM in test [2]; 3.06 µM in test [3]; 11.6 µM in test [4]; 0.214 µM in test [5]; above 16 µM in test [6]. Further, in test [7], the IC50 was above 5 µM.

NCI-H716 (large intestine, suspension): the AUC in test [1] stood at 0.976; in test [2] it was 0.753; in test [3] it was 0.81; in test [4] it was 0.67; in test [5] it was 0.721; in test [6], 0.976. Besides, the AUC in test [7] is 0.965. The IC50 is above 8 µM in test [1]; 4.22 µM in test [2]; 7.03 µM in test [3]; 3.39 µM in test [4]; 0.633 µM in test [5]; above 16 µM in test [6]. In addition, the IC50 in test [7] is above 5 µM.

With “NCI-H838 (lung adenocarcinoma, adherent)”, the AUC in test [1] was 0.985; in test [2], 0.829; in test [3], 0.743; in test [4] it was 0.976; in test [5] it was 0.583; in test [6], 0.971. Besides, the AUC in test [7] was determined as 0.855. Further, the IC50 in test [1] was above 8 µM; in test [2], 6.7 µM; in test [3], 3.21 µM; in test [4], above 16 µM; in test [5], 0.213 µM; in test [6], above 16 µM. Besides, in test [7], the IC50 came out at 4.26 µM.

Consider “NCI-H1048 (small cell lung carcinoma, adherent)”, for which the AUC was 0.983 in test [1]; 0.492 in test [2]; 0.785 in test [3]; 0.835 in test [4]; 0.825 in test [5]; 0.701 in test [6]. For the same cell line, the AUC in test [7] is 0.983. Besides, the IC50 was above 8 µM in test [1]; 0.611 µM in test [2]; 3.82 µM in test [3]; 9.02 µM in test [4]; 1.05 µM in test [5]; 3.43 µM in test [6]. Further, the IC50 in test [7] is above 5 µM.

In the case of “NCI-H1417 (small cell lung carcinoma, suspension)”, the AUC amounted to 0.981 in test [1]; 0.602 in test [2]; 0.729 in test [3]; 0.809 in test [4]; 0.581 in test [5]; 0.843 in test [6]. In addition, the AUC in test [7] is 0.943. In addition, the IC50 is above 8 µM in test [1]; 1.29 µM in test [2]; 3.21 µM in test [3]; 10.4 µM in test [4]; 0.217 µM in test [5]; 14.6 µM in test [6]. Moreover, the IC50 in test [7] was above 5 µM.

As for “NCI-H1703 (lung adenocarcinoma, adherent)”, the AUC worked out at 0.951 in test [1]; 0.936 in test [2]; 0.657 in test [3]; 0.879 in test [4]; 0.199 in test [5]; 0.926 in test [6]. Further, the AUC in test [7] was 0.944. The IC50 was above 8 µM in test [1]; above 10.2 µM in test [2]; 1.88 µM in test [3]; above 16 µM in test [4]; 0.0126 µM in test [5]; above 16 µM in test [6]. Also, the IC50 in test [7] is above 5 µM.

On to “NCI-H1876 (small cell lung carcinoma, adherent)”, for which the AUC came out at 0.987 in test [1]; 0.863 in test [2]; 0.751 in test [3]; 0.877 in test [4]; 0.638 in test [5]; 0.982 in test [6]. The AUC in test [7] came to 0.964. In addition, the IC50 in test [1] is above 8 µM; in test [2], 9.04 µM; in test [3], 3.32 µM; in test [4], above 16 µM; in test [5], 0.302 µM; in test [6] it was above 16 µM. The IC50 in test [7] is above 5 µM.

With “NCI-H1993 (lung adenocarcinoma, adherent)”, the AUC in test [1] was determined as 0.945; in test [2], 0.925; in test [3], 0.739; in test [4], 0.904; in test [5], 0.98; in test [6] it was 0.983. For the same cell line, in test [7], the AUC was 0.965. The IC50 was above 8 µM in test [1]; above 10.2 µM in test [2]; 3.81 µM in test [3]; above 16 µM in test [4]; above 2 µM in test [5]; above 16 µM in test [6]. Moreover, in test [7], the IC50 was above 5 µM.
